# In the supplement of paper PMC11417369:
# ± gives the standard deviation of the averaged measurements. The list shows a part of the results.
# System: PfAP2-I AP2 domain 3 (GST-tagged)
# Assay: gcPBM binding intensity (ln(normalized median fluorescence intensity)); higher = stronger DNA binding
# Summary of the method: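 An Agilent 4 × 180k array of primer-extended double-stranded 36-bp intergenic genomic probes, with negative controls, was incubated for 1 h with GST-tagged P. falciparum DNA-binding domains expressed in E. coli. Alexa488 anti-GST antibody detected bound protein, scanned at 488 nm. Binding intensity is the highest Masliner-normalised natural-log median intensity across replicate spots of either probe orientation.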
row,Sequence,gcPBM binding intensity (ln)
1,TTTTTATATATATGTATAAATATTTTTTCTATTTAT [XGTACX_negctrl_site606],7.42 ± 0.49
2,TAAATACAGACATACACACATACACCCACATATATA [CACACA_site547],8.105 ± 0.078
3,ATTAAAATGGAGTATTAATATGATATATATATATAT [GTGCAC_negctrl_site509],9.42 ± 0.45
4,AGGAACATTTACGCCCCACACACCTACCAACAAAAA [CACACA_site3827],8.6 ± 0.18
5,TATATATATATTTTTGGTACAGATATTTTCTTCTCT [XGTACX_site4432],9.06 ± 0.042
6,TTACAACCATAAAATGCATGTAAATGACAAAAAAAA [TGCATGCA_site944],7.93 ± 0.79
7,AATATATATATATATTGTACACACATTTATGCATAT [XGTACX_site6856],8.12 ± 0.34
8,TAAAATTAAATGAAATCATTATTCATTTTTATTTTA [CACACA_negctrl_site1281],6.88 ± 0.45
9,ATTCTTTTTTTTTTCTTATATTCTAATCACCACCTT [XGTACX_negctrl_site179],8.46 ± 0.3
10,CATATAAATAAACACACACACACATATATATATATA [CACACA_site5309],9.29 ± 0.39
11,AATAGGTGCCTTTTTTCACACACATGTCAACTAAAT [CACACA_site8846],9.05 ± 0.085
12,TTTGGTAAGCGTGTCGCATGTAGAACAAGTCTACAT [TGCATGCA_site577],7.39 ± 0.89
13,ATGAAATTATTATATAAACACACATTTATTTTATTT [CACACA_site8597],7.59 ± 0.49
14,TTACAAAAAGGTAATTTACACACTGCATATAGGAAT [CACACA_site8956],8.36 ± 0.69
15,TCTTAATATGGTAATACACACTAATATACTTTTGTT [CACACA_site4969],7.93 ± 0.53
16,ACCCTTCAATTTAATTGTACAAGAAAAAAAAAAAAA [XGTACX_site2927],8.11 ± 0.55
17,AAATAATCATAAAATAAACACACATATATAAATATA [CACACA_site7981],7.47 ± 0.43
18,TGCTCAAACTTTACAAATGAACGAATATAAAAAAAG [CACACA_negctrl_site541],7.92 ± 0.7
19,ACATAATATACTATTGTGCACATATATATATATATA [GTGCAC_site9761],10.88 ± 0.085
20,GTTAATTTAATTATATGTACGAAAAAATACGTTATA [XGTACX_site1306],7.84 ± 0.11
21,TTTTTATTTTTTTATTTCTTATCAAATAAAATATAT [XGTACX_negctrl_site537],7.54 ± 0.66
22,AATATTTTGTTATTTATTTAATCTAATATTACTATC [CACACA_negctrl_site4],7.5 ± 0.74

row,Sequence,gcPBM binding intensity (ln)
1,ATATATATATAAATATGTACATATATACATATATAC [XGTACX_site2374],8.84 ± 0.28
2,TAGGAAAATTACAAAAGTACTTGGCACATAATAATG [XGTACX_site6005],8.27 ± 0.26
3,AAAAAAAAAAAATACACACAAACACAAATTAAATAA [CACACA_site3809],7.72 ± 0.38
4,ATTATAGAATATTGAAGTACAAAATTTAAAATAAGT [XGTACX_site1468],7.96 ± 0.59
5,TAGATATTTTTGAAAAGTACAAATTTTTAAAAATTA [XGTACX_site4420],7.5 ± 0.33
6,TTATATAATGACAAAAAAAAAAAAAAAAAAAAAAAA [CACACA_negctrl_site1467],8.21 ± 0.68
7,GTATGATTACAAGAAAGTAGTCCACTTTAACAACAA [CACACA_negctrl_site1304],8.06 ± 0.51
8,TAATTTATCCTATAATGTACTTATAAAATATATCAT [XGTACX_site1460],7.7 ± 0.32
9,AGTCCATTTTATTATTGTACATATTAATTTATATCA [XGTACX_site672],8.42 ± 0.51
10,ATTCAGAGTATATAAAAATTAATATATACATAATAT [CACACA_negctrl_site1782],7.41 ± 0.49
11,ATGTACATAAACCGCACACATATAAAAAAATAAATA [CACACA_site5571],8.4 ± 0.057
12,ATCAAATTATAATCATGTACAAATAAAAAAAAAAAA [XGTACX_site313],7.91 ± 0.71
13,AGAAAAAAAAAAAAAAAACACACGGTACATCCAAAG [CACACA_site124],7.79 ± 0.7
14,AAATATCTACAAATATGTACATATTTTTTTTGGCTT [XGTACX_site6301],7.96 ± 0.43
15,TATTTTGTCATAGAACGTACTTATAAATATTTTTTT [XGTACX_site8424],7.76 ± 0.45
16,ATAGAAGCTGTTGACGAAGAAAAAAAAAAAAAAAAA [CACACA_negctrl_site110],8.09 ± 0.51
17,ATCATATCCACCAAATGAATAATATAAAATAATATA [XGTACX_negctrl_site193],8.12 ± 0.71
18,AAATAACATAATAAGGGTACATTAATTTCGATAATG [XGTACX_site835],7.72 ± 0.53
19,TATATATATATATATGCACACATTTATACAATTTTA [CACACA_site2986],9.96 ± 0.38
20,TTTCTTTTTAAATAATAATGTATAATAAAAAGTTCA [TGCATGCA_negctrl_site195],7.42 ± 0.5
21,TTTGTTTGATATATGTGTACATATATATATTATGCT [XGTACX_site3522],7.85 ± 0.27
22,AAGTACAATTCATGTATGCACTTTATTATATTTTAT,8.85 ± 0.085

row,Sequence,gcPBM binding intensity (ln)
1,TATAATATGTATATCTGTACATATTTTAAATCTAAT [XGTACX_site2426],7.5 ± 0.24
2,AAGATAAAATAATAAAGTACACATATAAATTGAAAA [XGTACX_site2113],8.26 ± 0.071
3,GTAATACCCAAACACACACACATACCCATATATATA [CACACA_site5510],8.34 ± 0.77
4,AGAAAGTAAAGCTGTTGTACTATTATATATATTTTA [XGTACX_site8090],7.65 ± 0.59
5,ATAGTTTTTCCAATTCAAAAAAAAAAAAAAAAAAAA [CACACA_negctrl_site969],8.12 ± 0.83
6,TAAAAATATTATAATGCATGCAAAATATTGTTATAA [TGCATGCA_site244],8.2 ± 0.77
7,AAAGTATAAATAAATACACACATATTTATTTATATA [CACACA_site7375],7.54 ± 0.46
8,GAGAGGATCATCAATTCACACACATAAAAATGAAGT [CACACA_site9010],7.59 ± 0.67
9,AACATATGATTAAACTGTACAAGAAAAATATAACAT [XGTACX_site4477],8.2 ± 0.59
10,TATATATAAGATTGATGTACGATTTTGGTGTCTTAT [XGTACX_site2611],8.19 ± 0.37
11,TGTTATGAGAACAGCACACAAGCTACATCATATATA [CACACA_site870],7.7 ± 0.53
12,TATTATAGTATATATTGTACATATATATATTTTTTA [XGTACX_site8831],7.59 ± 0.41
13,ATAATAATATATAGTACACACAAAAATGGAAGTAAA [CACACA_site3318],8.13 ± 0.56
14,CTTTCTATATAAAATCGTACATATATAATATTATAT [XGTACX_site5807],7.84 ± 0.44
15,TAAATGTCTGTTAATGCACACGATATGTCTATATAT [CACACA_site2352],10.7 ± 0.54
16,TATATTAAGAAACACACACACATATATATATATATA [CACACA_site1609],9.38 ± 0.63
17,GAAATTATAAATTGGACACACACATAAAAAATATGT [CACACA_site7957],7.79 ± 0.59
18,TTCCTATTTCCTATGTGTACTTATAAATAAGTGTCT [XGTACX_site3725],8.11 ± 0.57
19,TCCGCATGTACATGGGTGCACATAACACCCATTTAA [GTGCAC_site9881],10.4 ± 0.44
20,TTATACCTGATTTAGGTGCTATAAATTTGTGTTTTT,9.78 ± 0.38
21,ATATATATATATATGTGTACTTATATATTTAAAAAA [XGTACX_site1761],9.24 ± 0.33
22,ATATATATATATATATATATTTATATGTGAAAACCC [CACACA_negctrl_site845],9.37 ± 0.45

row,Sequence,gcPBM binding intensity (ln)
1,GTAATTTTATATGGTTGTACATATATATATATATAT [XGTACX_site6659],9.41 ± 0.45
2,CAACAACAAAAAAAAAAATAATAATAATAAAAAATA [TGCATGCA_negctrl_site271],7.5 ± 0.35
3,CGCATAAAGACAAGAACACACATATATATTGTAGTA [CACACA_site5938],7.5 ± 0.27
4,TATTTTTTAAAAAAATGTCATAAAATTTCTTTTTTC [XGTACX_negctrl_site271],7.33 ± 0.55
5,AGAAAAAAATAATGTACACACACATATATGTTTATA [CACACA_site7946],7.81 ± 0.51
6,ATATACAAAGGATTAACACACATATTATTATATATA [CACACA_site1880],7.58 ± 0.58
7,TAATGTAATACATATTGTACACATACATATATATTT [XGTACX_site7531],7.83 ± 0.25
8,GGGTATACCAATATAACACACATATATCTATAATAT [CACACA_site6348],7.72 ± 0.57
9,ATATATAATCATCACACATGCAGCCCTGATGAAAAA [TGCATGCA_site687],7.97 ± 0.64
10,TATTAAAAGGTTAAAGCATGCATACATATATATGTT [TGCATGCA_site865],7.79 ± 0.69
11,TTTTTGTTACCTATTGTGCACTTCATATAAATTAAA,11.3 ± 0.35
12,AATAATAAATAAAAATGTACACATACATTTCTATCC [XGTACX_site7057],7.64 ± 0.4
13,TATAAATTTTTATTTACATGCAGTTATTATTTCCAT [TGCATGCA_site41],7.87 ± 0.79
14,ATATATATATATATATGTACATATTTATATTGTAAA [XGTACX_site8878],9.07 ± 0.39
15,TATATATATATATATTGTACGAACCTTTTTTTTTTT [XGTACX_site4169],9.53 ± 0.057
16,TGATACGTATTTATTTCACACACGTTAAAAAAATAA [CACACA_site3914],7.72 ± 0.35
17,TAATTTTTTAAATTTAAACACACATTTTGTATATGT [CACACA_site8479],7.67 ± 0.63
18,CTAACACTAATTTTTTGTACACAATATGTAAATAAA [XGTACX_site6424],7.96 ± 0.24
19,ATTTTTACATAGGAAGCATGCATATTTTAAAAATAA [TGCATGCA_site1046],7.62 ± 0.66
20,TTATTTCTGAATATTTTTTTTTTTTCTTCTTTTTTA [CACACA_negctrl_site815],7.06 ± 0.69
21,CATGTGTTCTATATTTATGTCTAACTTTTTAATTAA [CACACA_negctrl_site904],7.79 ± 0.49
22,TATACATTATTATTATGTACTTAAATATATATTATA [XGTACX_site5173],7.54 ± 0.18
